Data reported in PubChem BioAssay AID1347165 (National Center for Advancing Translational Sciences (NCATS), 2019).
The campaign covered roughly 220,000 compounds. About 5,700 (2.6%) were called active. Inconclusive results, whose numbers are uncertain, are shown with a selection of clear calls. Calls come from the whole dose curve; as a rule, active = well fitted inhibition curve with a large enough effect; inconclusive = small, poorly fitted or top-dose-only effect; inactive = no such curve, though single readings can be large or run the other way. Where the call is inconclusive, the potency comes from a doubtful curve fit.

Biological target: Lysine-specific demethylase 5B (Homo sapiens) (UniProt Q9UGL1)
Chain of UniProt Q9UGL1 (Q9UGL1 whole entry, looked up): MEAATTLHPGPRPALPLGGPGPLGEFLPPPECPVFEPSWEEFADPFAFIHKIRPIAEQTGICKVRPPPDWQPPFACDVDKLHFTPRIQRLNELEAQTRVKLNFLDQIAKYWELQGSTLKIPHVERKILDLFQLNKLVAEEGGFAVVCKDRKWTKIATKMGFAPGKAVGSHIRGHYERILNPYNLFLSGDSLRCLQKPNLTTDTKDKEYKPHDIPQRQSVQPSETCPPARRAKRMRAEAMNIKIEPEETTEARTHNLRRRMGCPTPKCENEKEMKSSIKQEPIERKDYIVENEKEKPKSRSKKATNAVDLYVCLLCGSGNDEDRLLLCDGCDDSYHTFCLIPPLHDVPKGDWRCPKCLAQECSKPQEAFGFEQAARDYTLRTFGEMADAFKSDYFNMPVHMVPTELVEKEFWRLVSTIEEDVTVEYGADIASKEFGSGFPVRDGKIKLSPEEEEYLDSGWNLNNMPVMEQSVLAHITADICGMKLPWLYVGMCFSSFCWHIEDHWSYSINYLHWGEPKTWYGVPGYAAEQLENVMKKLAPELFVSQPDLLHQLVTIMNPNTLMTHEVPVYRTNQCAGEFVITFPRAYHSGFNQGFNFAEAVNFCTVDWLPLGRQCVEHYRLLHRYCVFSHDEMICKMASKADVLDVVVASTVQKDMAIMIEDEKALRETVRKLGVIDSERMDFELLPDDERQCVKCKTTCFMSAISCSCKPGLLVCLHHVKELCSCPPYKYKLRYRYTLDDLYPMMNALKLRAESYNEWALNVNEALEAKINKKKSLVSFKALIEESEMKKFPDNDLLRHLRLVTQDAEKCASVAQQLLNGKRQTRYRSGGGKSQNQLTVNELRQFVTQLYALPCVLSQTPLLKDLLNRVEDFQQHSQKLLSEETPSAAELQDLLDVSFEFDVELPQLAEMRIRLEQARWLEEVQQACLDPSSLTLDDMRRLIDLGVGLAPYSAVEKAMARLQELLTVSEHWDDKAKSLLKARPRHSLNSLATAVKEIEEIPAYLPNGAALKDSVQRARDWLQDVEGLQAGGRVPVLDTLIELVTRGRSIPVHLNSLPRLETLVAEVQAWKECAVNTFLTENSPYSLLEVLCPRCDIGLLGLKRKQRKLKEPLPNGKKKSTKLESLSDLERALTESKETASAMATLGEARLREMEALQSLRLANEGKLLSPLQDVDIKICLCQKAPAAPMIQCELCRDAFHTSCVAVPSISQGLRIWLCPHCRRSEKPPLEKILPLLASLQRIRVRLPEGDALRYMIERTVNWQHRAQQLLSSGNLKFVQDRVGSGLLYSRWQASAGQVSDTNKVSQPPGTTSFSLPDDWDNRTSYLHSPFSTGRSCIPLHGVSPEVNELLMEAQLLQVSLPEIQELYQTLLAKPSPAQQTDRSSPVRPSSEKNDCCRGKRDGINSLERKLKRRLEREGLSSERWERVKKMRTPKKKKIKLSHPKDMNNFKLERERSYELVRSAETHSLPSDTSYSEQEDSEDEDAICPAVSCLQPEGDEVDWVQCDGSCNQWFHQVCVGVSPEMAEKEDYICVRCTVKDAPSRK
Test: Primary screen for KDM5B Histone Demethylases FDH-coupled qHTS; note: nearly all actives have a fitted effect of over 70% in size; for activity change, negative = inhibition: 0% is about no effect
Settings: FDH-coupled NADH fluorescence (FDH is formaldehyde dehydrogenase); activity change, negative = inhibition: at 57.7 µM (top of the series) unless noted
Method in brief: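 Coupled FDH/NAD⁺ fluorescence readout. KDM5BΔAP 200 nM final; compound titration, 10 min RT preincubation; substrate mix 12.5 µM H3K4me3, 25 µM 2-OG, 50 µM Fe(II), 100 µM ascorbate, 0.25 mM NAD⁺, 0.25 U/mL FDH; ΔRFU over 30 min.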
Potency is the fitted concentration of half-maximal effect; tags give direction and shape of the fitted curve.

Compound	Potency	activity change, negative = inhibition
COc1ccc(-c2ccc3nnc(CNC(=O)CNC(=O)c4ccccc4)n3n2)cc1	active: 28.2 µM	–
Cc1ccc(C(=O)N2CCCN(c3cc(-c4ccc(Cl)cc4)[nH]n3)CC2)cc1C	inconclusive: 20 µM [inhibitor, partial curve]	–
COCCNC(=O)c1cc(-c2ccc(OC)cc2)nc2onc(C3CCCN3)c12 (stereo not drawn)	inconclusive: 56.2 µM [inhibitor, partial curve, poor fit]	–
Cc1cc(C)n2ncc(-c3noc(C(=O)NC[C@@H](C)O)n3)c2n1	inconclusive: 39.8 µM [inhibitor, partial curve, poor fit]	–
CCCn1c2ccccc2c2cnn(CC(=O)NCCc3ccc(S(N)(=O)=O)cc3)c(=O)c21	inconclusive: 31.6 µM [inhibitor, partial curve, poor fit]	–
Cc1cccc(OCCc2noc(C3CNC3)n2)c1	inconclusive: 25.1 µM [inhibitor, partial curve]	–
Nc1nc(Nc2ccc(F)cc2)sc1C(=O)c1ccc(Cl)cc1	–	inactive: -3.16%
CCNc1nc(-c2ccc(S(=O)(=O)N3CCCCCC3)cc2)cs1	inconclusive: 14.1 µM [inhibitor, partial curve, poor fit]	–
Cc1ccc(OCCOc2ccc3ccc(=O)oc3c2)cc1C	–	inactive: 6.31%
N#Cc1cccc(CN2C[C@@H](CO)[C@H](c3ccccn3)C2)c1	active: 12.6 µM	–
COc1cccc(C2CNC(=O)c3nc(-c4ccc(C(=O)N(C)C)o4)[nH]c3C2)c1 (stereo not drawn)	active: 28.2 µM	–
CCCc1nnc(NC(=O)c2cc(=O)c3cc(C)ccc3o2)s1	–	inactive: 15.1%
c1ccc(-c2ccnc(NCC3OCCc4ccccc43)n2)nc1 (stereo not drawn)	inconclusive: 22.4 µM [inhibitor, partial curve, poor fit]	–
CCc1cccc(NC(=O)C2CCN(S(=O)(=O)c3ccc(Br)s3)CC2)c1	–	inactive: -8.61%
Cc1ccc(CSc2nc3cccnc3n2Cc2ccc(C(=O)NC3CC3)cc2)cc1	inconclusive: 35.5 µM [inhibitor, single point]	–
O=C1CCN(Cc2ccncc2)CCCC(C(=O)Nc2ccccc2CCc2ccncc2)CCN1 (stereo not drawn)	inconclusive: 31.6 µM [inhibitor, single point]	–
Cc1noc(C)c1-c1cc2c(c(-c3cccc(O)c3)c1)C(=O)N(C)C2	–	inactive: -2.07% [at 86.2 µM]
CNC(=O)c1ccc2c(c1)C1(CCN(CC3CC3)C1)CN2Cc1ccccc1 (stereo not drawn)	active: 35.5 µM	–
Cc1nn(CCC(=O)Nc2ccc(Cl)cc2)c(C)c1S(=O)(=O)N1CCCCC1	–	inconclusive: -31.7% [inhibitor]
CCOC(=O)C1=C(C)N=C2SC=C(CC(=O)N3CCC(C)CC3)N2C1c1cccc(OC)c1 (stereo not drawn)	inconclusive: 28.2 µM [inhibitor, partial curve, poor fit]	–
O=C1CCCCC(CNC(=O)c2ccccc2F)N1 (stereo not drawn)	–	inactive: -19.6%
Cc1ccccc1NC(=O)COC(=O)c1nn(-c2ccccc2)c(=O)c2ccccc12	–	inactive: 5.89%
CCOc1cc(/C=C(\C#N)c2nc3ccccc3[nH]2)ccc1OCc1ccccc1	–	inactive: 31.1%

Compound	Potency	activity change, negative = inhibition
O=S(=O)(Nc1nc2ccccc2nc1NCCc1ccccc1)c1ccc(F)cc1	inconclusive: 14.1 µM [inhibitor, partial curve, poor fit]	–
O=C(Nc1ccc(Cl)cc1Cl)c1cc(S(=O)(=O)NCc2ccc3c(c2)OCO3)ccc1F	inconclusive: 35.5 µM [inhibitor, partial curve, poor fit]	–
CN(Cc1cnccn1)C(=O)CC1C(=O)NCCN1Cc1c(F)cccc1Cl (stereo not drawn)	inconclusive: 20 µM [inhibitor, single point]	–
CCOc1cc(C(=O)NC2CCN(c3cc(-c4ccccc4)[nH]n3)C2)cc(OCC)c1OCC (stereo not drawn)	inconclusive: 17.8 µM [inhibitor, partial curve, poor fit]	–
Fc1ccccc1-c1nnc([C@H]2CCN(Cc3ccccc3)C2)o1	inconclusive: 31.6 µM [inhibitor, partial curve]	–
CC1=C[C@@H](CC#N)[C@H](C(C)C)C[C@H]1CC(=O)N1CCN(c2cnccn2)CC1	active: 35.5 µM	–
COC(=O)[C@@H]1Cc2c([nH]c3ccccc23)[C@H]2C[C@@H](NCc3cccnc3)C[C@@H](c3ccc(F)cc3)N21	inconclusive: 15.8 µM [inhibitor, partial curve, poor fit]	–
COc1cccc(-c2ccc(CN3C4CCC3CN(C(=O)Nc3ccccc3F)C4)cc2)c1	inconclusive: 22.4 µM [inhibitor, partial curve]	–
COC(=O)c1ccc(NC(=O)C(C)Sc2nc(=O)cc(N)n2CCc2ccccc2)cc1 (stereo not drawn)	inconclusive: 1.12 µM [inhibitor, partial curve, poor fit]	–
COc1ccc2cc(C(=O)OCC(=O)NCC3CCCO3)c(C)nc2c1 (stereo not drawn)	inconclusive: 31.6 µM [inhibitor, partial curve, poor fit]	–
Cc1ccc(-c2cnc(CCC(=O)N(C)C(C)c3ccc(S(N)(=O)=O)cc3)o2)cc1 (stereo not drawn)	–	inactive: 9.38%
NC(=O)c1cc(Cc2ccccc2)sc1NC(=O)c1ccco1	inconclusive: 39.8 µM [inhibitor, partial curve, poor fit]	–
CCCN(CCC)c1ccc(C=O)cc1	–	inactive: -7.37%
Cc1ccc(C(=O)N/N=C/c2cn(Cc3ccccc3)c3ccccc23)cn1	inconclusive: 39.8 µM [inhibitor, single point]	–
CC(C)N1CC[C@H](c2nc3ccc(C#N)cc3[nH]2)C1	inconclusive: 31.6 µM [inhibitor, single point]	–
COc1ccc(-c2cc3c(ccn3Cc3ccncc3)c(N3CCOCC3)n2)cn1	inconclusive: 35.5 µM [inhibitor, partial curve]	–
COc1ccc(-n2c(C)nc3c(cnn3-c3ccc(C)c(C)c3)c2=O)cc1Cl	inconclusive: 25.1 µM [inhibitor, partial curve, poor fit]	–
O=C(c1cnccn1)N1CCCC(Cc2nc(C3CCOCC3)no2)C1 (stereo not drawn)	inconclusive: 22.4 µM [inhibitor, partial curve]	–
CN1CCN(C(=O)c2ccc(N3CC4CC(C3)[C@H]3CCCC(=O)N3C4)nc2)CC1 (stereo partly drawn)	–	inactive: -14.4%
O=C(Nc1ccc(-c2nc3ccccc3s2)cc1)C1CCN(C(=O)c2cccs2)CC1	inconclusive: 39.8 µM [inhibitor, single point]	–
CN(C)C(=O)N1CCN(c2cc(Cl)ncn2)C(=O)C1	inconclusive: 112 µM [inhibitor, partial curve, poor fit]	–
CNC(=O)c1ccc(/C=C/C(=O)c2ccccc2C)cc1	inconclusive: 25.1 µM [inhibitor, partial curve, poor fit]	–
C=CCn1c(C)cc(C(=O)COc2ccc3ccc(=O)oc3c2)c1C	inconclusive: 25.1 µM [inhibitor, single point]	–

Compound	Potency	activity change, negative = inhibition
CC(Sc1nc(CN2CCOCC2)nc2ccccc12)c1ccccc1Cl (stereo not drawn)	–	inactive: -4.63%
COc1cc(Cl)c(NS(=O)(=O)c2cc(-c3n[nH]c(=O)c4c3CCCC4)ccc2C)c(OC)c1	–	inactive: -12.8%
CC(O)CNC(=O)c1ccc(-c2ncc3cnc(C4=CCOCC4)cn23)cc1 (stereo not drawn)	active: 35.5 µM	–
O=c1cc(-c2ccccc2Cl)nc(-c2ccc(CN3CCC[C@@H](O)C3)cc2)[nH]1	inconclusive: 22.4 µM [inhibitor, partial curve, poor fit]	–
CC1(C)CC(=O)c2cc(C#N)c(SCc3ccccc3Cl)nc2C1	–	inactive: -5.44%
Cc1c(Cl)cccc1NC(=O)Nc1c[nH]c(=O)[nH]c1=O	–	inconclusive: -30.3% [inhibitor]
O=C(NCc1ccccc1S(=O)(=O)N1CCOCC1)c1ccc(OC(F)F)cc1	–	inactive: -7.15%
CN1CCCN(C(=O)c2cccs2)c2ccccc21	–	inactive: -22%
Cc1cc(C(=O)CN2CCN(Cc3ccc4c(c3)CCO4)CC2)c(C)n1C1CCS(=O)(=O)C1 (stereo not drawn)	inconclusive: 10 µM [inhibitor, partial curve, poor fit]	–
Cc1nc2ccc(-c3nc(C4CCOC4)no3)cc2s1 (stereo not drawn)	–	inactive: -0.109%
O=c1c2nc(-c3ccccc3F)ccc2ncn1Cc1ccccn1	inconclusive: 31.6 µM [inhibitor, partial curve, poor fit]	–
CN1CC(=O)N(C2CCCNC2)Cc2c(NCCc3ccccn3)ncnc21 (stereo not drawn)	inconclusive: 56.2 µM [inhibitor, partial curve, poor fit]	–
O=C(CC1CCCCC1)Nc1ccc(-c2ccc3nncn3n2)cc1	inconclusive: 31.6 µM [inhibitor, partial curve, poor fit]	–
COc1ccc(-c2cc(C(=O)Nc3ccc4c(c3)OCO4)no2)cc1	inconclusive: 35.5 µM [inhibitor, single point]	–
Cc1ccc(CC(=O)Nc2ccc(C(=O)N3CCCCC3)cc2)cc1	–	inactive: 24.8%
CC(C)N1C(=O)C(CC(=O)NCC2CCN(Cc3ccccc3F)CC2)=C2CCCCC21 (stereo not drawn)	–	inactive: 8.28%
CCCn1c(=O)sc2cc(NC(=O)c3ccccc3Cl)ccc21	inconclusive: 39.8 µM [inhibitor, single point]	–
COC(=O)c1ccc2nc(CO[C@H]3CN(C(=O)C4CCOCC4)C[C@H]3F)[nH]c2c1	–	inactive: -8.7% [at 86.2 µM]
Cc1cc2oc(C(=O)N(Cc3ccc(Cl)cc3)Cc3ccco3)c(C)c2cc1Cl	–	inconclusive: -30.2% [inhibitor]
CCN(CC)C(=O)c1c(NC(=O)c2ccccc2F)sc2c1CCC(C(C)(C)C)C2 (stereo not drawn)	inconclusive: 25.1 µM [inhibitor, partial curve, poor fit]	–
Cc1ccnc(N2CCCC(C(=O)NC3CC3)C2)n1 (stereo not drawn)	–	inactive: -15%
CC1(c2ccccc2)N(Cc2ncccn2)C(=O)OC12CCN(Cc1ccc(F)cc1)CC2 (stereo not drawn)	inconclusive: 35.5 µM [inhibitor, partial curve, poor fit]	–
